About 1,700 (3.3%) of roughly 52,000 compounds were called active. No stated cut-off is given here; in the data, active means survival mostly below about 52% (no sharp cut-off); inactive means mostly above about 56%. This is one part of the list.

In the assay the test system is Wild type. Briefly: growth inhibition of S. aureus wild type versus tarO mutant, primary screen, teichoic acid synthesis inhibitors, RN4220, OD600 (AID 463173). The following applies: S. aureus RN4220 wild type/DeltatarO growth, OD600, 18 h, stronger effect = lower value, screened at 18.75 µg/mL (by protocol).
Turning to `CCCCCCC1CC=C(C(=O)O)CC1` (centres undefined), the survival is inactive: 110%. With `COc1ccc(N2CCN(S(=O)(=O)CCNC(=O)c3ccc(OC(C)C)cc3)CC2)cc1`, the survival is inactive: 83%. To `COc1ccccc1/C=C/c1nc(C#N)c(N2CCN(c3ccccc3)CC2)o1` belongs inactive: 116%; to `COc1ccc(-c2cc(C(F)(F)F)nc(NCCc3ccccc3)n2)cc1`, active: -2%; to `Cc1c(-c2ccc(Cl)cc2)c(=O)oc2c(CN3CCOCC3)c(O)ccc12`, inactive: 84%. On to `O=C(NCCc1ccccc1)c1cc2sccc2n1Cc1ccc(F)cc1`, for which the survival is inactive: 86%. Take `COC(=O)c1c(SCC(=O)Nc2cc(F)ccc2F)[nH]c2ccc(C)cc2c1=O`: the survival was inactive: 136%. On to `COC(=O)c1cccc(CN2C(=O)SC(Nc3ccc(Br)cc3)C2=O)c1` (centres undefined), for which the survival was inactive: 50%. In the case of `CSc1cccc(NC(=O)C(c2ccccc2)N2Cc3ccccc3C2=O)c1` (centres undefined), the survival is inactive: 75%. Next, `Cc1ccc(NC(=O)CSc2nc3ccc(NC(=O)c4ccco4)cc3s2)c(C)c1`: inactive: 63%.

Turning to `CNC(=O)c1c(NC(=O)c2ccc(S(=O)(=O)N3CCCC(C)C3)cc2)sc2c1CCC2` (centres undefined), the survival was inactive: 101%. For `CCCCOc1ccc(C(=O)Nc2onc3c2CCCC3)cc1`, the survival is inactive: 85%. Next, `COC(=O)C1CCN(C(c2ccccc2Cl)c2sc3nc(-c4ccco4)nn3c2O)CC1` (centres undefined): inactive: 80%; `Cn1cc(CCC(=O)O)c2ccccc21`: inactive: 117%; `Cc1ccc(NC(=O)C2CCCN(S(=O)(=O)c3ccc(F)cc3)C2)cc1` (centres undefined): inactive: 79%. For `Cc1cc(C)cc(NC(=O)Nc2cccs2)c1`, the survival is inactive: 46%.

As for `CCOC(=O)CN1C(C(=O)c2ccccc2)=C(OC(=O)c2ccccc2)c2ccccc2S1(=O)=O`, the survival was inactive: 89%.

For `CC(=O)Oc1ccc2oc(=O)sc2c1`, the survival is inactive: 56%. For `O=c1nc2cc3[nH]c4c(=O)c5ccccc5c4[nH]c3cc2n1`, the survival was inactive: 104%. To `CC(C)N1CC=C2C(C1)C(c1ccccc1Cl)C(C#N)=C(N)C2(C#N)C#N` (centres undefined) belongs inactive: 108%. As to `CCOC(=O)c1cccc(NC(=O)c2ccc3snnc3c2)c1`, the survival was inactive: 84%.

Regarding `COc1ccccc1N1CCN(C(=O)C2CCCN(S(=O)(=O)c3ccc4c(c3)oc(=O)n4C)C2)CC1` (centres undefined), the survival is inactive: 84%.

As to `Cc1ccc(C)c(NC(=O)Cn2cnc3nc4c(cc3c2=O)CCCC4)c1`, the survival is inactive: 72%. Next, `Cc1ccc(Nc2nc(N)nc(N)c2S(=O)(=O)c2ccccc2)cc1`: inactive: 66%; `COC(=O)c1sccc1S(=O)(=O)N(CC(=O)NCc1ccccc1)c1ccc(C)cc1`: inactive: 78%; `O=C(NC1CCCCC1)C(c1ccco1)N(C(=O)C1COc2ccccc2O1)c1cccc(F)c1` (centres undefined): inactive: 132%. Regarding `CCc1ccc(-n2c(N3CCN(c4cccc(C)c4C)CC3)nc3ccccc3c2=O)cc1`, the survival was inactive: 81%.

Consider `COCCNC(=O)CSc1nnc(NC(=O)Nc2ccc(C)cc2)s1`, for which the survival is inactive: 88%. Take `Cc1nc2ccn(Cc3cccnc3)c(=O)c2cc1C(=O)N1CCN(c2ccccc2)CC1`: the survival is inactive: 79%. `COc1ccccc1C(=O)Nc1nc(-c2ccc(Br)cc2)ns1`: the survival was inactive: 114%. Consider `CC(=O)Nc1ccccc1-c1nc2ccccc2n(C(C)C(=O)c2ccc(C)c(C)c2)c1=O` (centres undefined), for which the survival was inactive: 117%. As for `CCN(c1ccccc1)S(=O)(=O)c1nnc(NC(=O)COc2ccccc2F)s1`, the survival was inactive: 50%. As to `CCOc1ccc(CC(=O)NC2CC(=O)N(c3ccc4c(c3)OCCO4)C2)cc1` (centres undefined), the survival is inactive: 94%. For `COc1ccc(-c2[nH]ncc2C(=O)NCc2ccccc2OC)cc1`, the survival was inactive: 80%. For `Cc1ccc(Nc2cc(-c3ccccc3)nc(C)n2)cc1`, the survival was inactive: 37%. For `COc1cc(C2C(=O)N(C3CCC(C)CC3)CC(=O)N2CCc2ccc(Cl)cc2)ccc1OC(C)C` (centres undefined), the survival is inactive: 82%.

Turning to `Cc1ccc(NC(=O)CN(C)S(=O)(=O)c2cccc3nsnc23)c(C)c1`, the survival was inactive: 74%.

In the case of `COc1ccc(CNC(=O)C(=O)NCC(c2cccnc2)N2CCN(c3ccccc3F)CC2)cc1` (centres undefined), the survival is inactive: 97%. Consider `CC1CN(C)C(C)c2c1oc1ccc(N)cc21` (centres undefined), for which the survival is inactive: 106%.

As to `CC(=O)Nc1ccc(S(=O)(=O)Nc2ccc3c(c2)n(C)c(=O)n3C)c(C)c1`, the survival was inactive: 84%.

Take `Cc1cc(C)n(-c2nc3cc(Cl)c(Cl)cc3nc2Nc2c(C)cccc2C)n1`: the survival is inactive: 87%. Consider `Cc1cccc2cc(C(c3nnnn3Cc3ccccc3)N3CCN(C(=O)c4ccco4)CC3)c(=O)[nH]c12` (centres undefined), for which the survival was inactive: 123%.

In the case of `Cc1noc(C)c1S(=O)(=O)NCCc1csc2nc(-c3ccc(F)cc3)nn12`, the survival was inactive: 72%. As to `Cc1ccc(NC(=O)[C@H](Cc2ccccc2)N2Cc3ccccc3C2=O)cc1`, the survival is inactive: 86%. Consider `CCSC1=NC2(CCN(C(=O)NC3CCCCC3)CC2)N=C1c1ccc(C)c(C)c1`, for which the survival was inactive: 74%.

In the case of `CCc1cccc(NC(=O)c2ccc3c(=O)n4nc(Nc5ccccc5OC)sc4nc3c2)c1`, the survival was inactive: 91%. On to `COc1nc(Oc2ccc(=O)n(-c3ccccc3)n2)nc(N(C)C)n1`, for which the survival is inactive: 77%. For the compound `COc1ccc(C(=O)NN=C2CCCC2)cc1`, the survival is inactive: 102%. As to `COc1ccc(OC)c(NC(=O)CCc2c(C)nc3c(-c4ccccc4)c(C)nn3c2C)c1`, the survival was inactive: 73%. For `CCCN(CCC)CCNC(=O)c1cc(Sc2ccc(Cl)cc2)nc2ccccc12`, the survival was inactive: 133%. `CCOC(=O)c1c(NC(=O)c2cc3ccccc3c(=O)o2)sc2c1CCCC2`: the survival is inactive: 65%. For `Cc1cccc(CSCCNC(=O)CN(c2ccccc2)S(=O)(=O)N(C)C)c1`, the survival is inactive: 119%. Turning to `Cc1ccc(S(=O)(=O)c2cn(CC(=O)Nc3ccc4c(c3)OCO4)c3ccc(F)cc3c2=O)cc1`, the survival is inactive: 76%. With `CC1(C)Cc2ccccc2-c2nnc(SCC(N)=O)n21`, the survival is inactive: 105%. Take `O=C(CSc1ncn[nH]1)NCCOc1ccccc1`: the survival was inactive: 108%.

`Cc1cccc(Nc2nc3ccccc3n3c(N)nnc23)c1`: the survival was inactive: 119%.

With `CCc1c(C)nc2cc(-c3ccccc3)[nH]n2c1=O`, the survival is inactive: 106%. On to `Cc1cc2n(n1)CCCN2C(=O)Nc1cccc(C)c1C`, for which the survival is inactive: 89%.

On to `Cc1ccc(Cn2c(=O)c3cccnc3n(Cc3ccc(F)cc3)c2=O)cc1`, for which the survival was inactive: 98%. For `COc1cccc(N2CCN(c3ncc4c(n3)CCN(Cc3ccc(Br)cc3)C4)CC2)c1`, the survival was inactive: 55%. Turning to `Cc1ccc(OC(C)C(=O)NCC2(N3CCOCC3)CCCCC2)cc1C` (centres undefined), the survival is inactive: 86%.

Take `Cc1c(C(=O)N(C)C)sc2c1c(=O)n(-c1ccc(F)cc1)c(=O)n2CC(=O)N(C)c1ccccc1`: the survival is inactive: 75%.

For the compound `COc1ccccc1CNC(=O)CCC1N=C2c3ccccc3N=C(SCC(=O)NCCc3ccccc3)N2C1=O` (centres undefined), the survival was inactive: 129%.

Consider `Cc1cccc(CNC(=O)c2ccc(Cn3c(SCc4ccccc4)nc4cccnc43)cc2)c1`, for which the survival was inactive: 83%. Next, `CCc1ccc2oc(C(=O)Nc3nc(-c4ccccc4)ns3)c(C)c2c1`: inactive: 71%.

Turning to `CCOc1ccc(-n2c(SC(C)C(=O)OC)nc3c([nH]c4ccccc43)c2=O)cc1` (centres undefined), the survival was active: -2%.

For the compound `COc1ccc(Cl)cc1NC(=O)c1nc(S(C)(=O)=O)ncc1N(Cc1ccc(C)cc1)Cc1ccco1`, the survival was inactive: 116%. For `Cc1cc2oc(C(=O)Nc3ccc(S(=O)(=O)Nc4onc(C)c4C)cc3)cc(=O)c2cc1C`, the survival is inactive: 89%. For `Cc1ccc(C)c(NC(=O)Cn2c(=O)oc3cc(S(=O)(=O)NCc4ccccc4)ccc32)c1`, the survival is inactive: 85%.

As for `CCOC(=O)c1c(NC(=O)/C=C/c2ccc(OC)cc2)sc2c1CCC(C)C2` (centres undefined), the survival is inactive: 31%. Take `O=C(CSc1nc(=O)[nH]c2c1CCCC2)NCc1ccc(Cl)cc1`: the survival is inactive: 73%. On to `CCN(CCCNC(=O)c1cc2c(=O)[nH]c3ccc(C)cc3c2s1)Cc1ccccc1`, for which the survival is inactive: 77%. Regarding `Cc1ccccc1C(=O)Nc1sc2c(c1C(=O)N1CCC(C)CC1)CCCC2`, the survival is inactive: 64%. With `Cc1cc(C)c2[nH]c(=O)c(C(c3nnnn3CC3CCCO3)N3CCN(c4ccccc4F)CC3)cc2c1` (centres undefined), the survival is inactive: 113%. Take `CCOC(=O)c1c(NC(=O)c2ccc(S(=O)(=O)N(C)C)cc2)sc2c1CCN(C)C2`: the survival is inactive: 63%. Regarding `CCCCSCCCNC(=O)c1cc(-c2cccnc2)nc2ccc(S(=O)(=O)N3CCC(C)CC3)cc12`, the survival is inactive: 89%.

For the compound `COc1ccc(NC(=O)Cn2c(=O)n(CC3CCCO3)c(=O)c3ccccc32)cc1` (centres undefined), the survival is inactive: 87%.

For `CCCCCCNc1ncnc2c1sc1nc(N3CCOCC3)c3c(c12)CCCC3`, the survival was inactive: 77%. As to `Cc1oc2ccc(O)c(CN3CCN(Cc4ccccc4)CC3)c2c1C(=O)Nc1cccc(Cl)c1C`, the survival is inactive: 81%. In the case of `CCCN(C(=O)c1nn(-c2ccc(C)cc2)c(=O)c2c1c1ccccc1n2C)c1ccccc1C`, the survival was inactive: 88%. As to `O=C(Nc1cccc(C(=O)N2CCN(c3ccc(F)cc3)CC2)c1)c1nsc2ccccc12`, the survival was inactive: 92%. On to `O=C(Nc1ccc(Oc2ccccc2)cc1)C1CCN(S(=O)(=O)c2ccccc2)CC1`, for which the survival is inactive: 74%. To `CC(=O)c1ccc(N2CCN(C(=O)Cn3ncc4c3-c3ccccc3OC4)CC2)cc1` belongs inactive: 75%; to `COc1ccccc1/C=C/c1nc(C#N)c(NC(C)c2ccccc2)o1` (centres undefined), inactive: 76%. As to `CCOc1ccc(NC(=O)c2cnn3c(C(F)F)cc(-c4ccc(C)cc4)nc23)cc1`, the survival is inactive: 67%. As for `Cc1c(Cl)cccc1NC(=O)CN1C(=O)CSc2ccc(S(=O)(=O)N3CCCC3)cc21`, the survival is inactive: 108%. Regarding `Cc1[nH]c2ccc(-c3nnc(SCc4ccc(C(=O)O)cc4)o3)cc2c1C`, the survival was inactive: 91%.

Turning to `CC(=O)c1cc(-c2ccc(F)cc2)n(CCC(=O)NCc2ccc(C)cc2)c1C`, the survival is inactive: 72%. In the case of `Cc1ccccc1CCNCc1c(C(=O)O)c(C)n(Cc2c(F)cccc2Cl)c1C`, the survival was inactive: 83%.

Source of the values: PubChem BioAssay AID463173 (ICCB-Longwood Screening Facility, Harvard Medical School, 2010).
